# Source: the supplement of paper PMC4604168 (melanoma cell lines)
# This is one part of the list. Single values are uncertain, as repeats are few or missing.
# How the values were obtained:
# Assay in all cases: cell count relative to DMSO control; melanoma cells; higher = more viable cells
# Conditions in all cases: library dose: low library concentration; 72 h
# MZ2-MEL = test system: MZ2-MEL
# MeWo = test system: MeWo
# RPMI7951 = test system: RPMI7951
# RVH-421 = test system: RVH-421
# SkMel28 = test system: SkMel28
# SkMel2 = test system: SkMel2
# SkMel30 = test system: SkMel30
# SkMel5 = test system: SkMel5
# UACC257 = test system: UACC257
# UACC62 = test system: UACC62
# 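Further: cell number obtained by counting DAPI-stained nuclei in high-throughput microscope images with image analysis software, screen run in 1,536-well plates.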
SMILES,cell count (MZ2-MEL) [%],cell count (MeWo) [%],cell count (RPMI7951) [%],cell count (RVH-421) [%],cell count (SkMel28) [%],cell count (SkMel2) [%],cell count (SkMel30) [%],cell count (SkMel5) [%],cell count (UACC257) [%],cell count (UACC62) [%]
"N#CC[C@H](C1CCCC1)n1cc(-c2ncnc3[nH]ccc23)cn1 [ruxolitinib] + Oc1cc(-c2nc(-c3ccccc3)[nH]c2-c2ccncc2)ccc1Cl [L779450] (first compound 1 µM, partner dose 0.2 µM)",79.8,98.1,99.8,93.5,113,89.3,94.3,116,87.4,104
"CC[C@]1(O)C[C@H]2CN(CCc3c([nH]c4ccccc34)[C@@](C(=O)OC)(c3cc4c(cc3OC)N(C=O)[C@H]3[C@@](O)(C(=O)OC)[C@H](OC(C)=O)[C@]5(CC)C=CCN6CC[C@]43[C@@H]65)C2)C1 [vincristine] + CC(=O)c1c(C)c2cnc(Nc3ccc(N4CCNCC4)cn3)nc2n(C2CCCC2)c1=O [palbociclib] (first compound 0.0001 µM, partner dose 0.04 µM)",80.5,69.7,47.8,86.8,52.3,75.7,50.5,,,57.4
"N#CC[C@H](C1CCCC1)n1cc(-c2ncnc3[nH]ccc23)cn1 [ruxolitinib] + O=c1cc(-c2cccc3c2Sc2ccccc2S3)oc(N2CCOCC2)c1 [KU55933] (first compound 1 µM, partner dose 1 µM)",111,86.9,107,124,98.1,108,84.7,93.7,99.1,107
"N#CC[C@H](C1CCCC1)n1cc(-c2ncnc3[nH]ccc23)cn1 [ruxolitinib] + Cc1cc(N2CCOCC2)cc2[nH]c(-c3c(NC[C@@H](O)c4cccc(Cl)c4)cc[nH]c3=O)nc12 [BMS536924] (first compound 1 µM, partner dose 0.2 µM)",106,96.4,121,97.9,118,103,99.8,95.5,80.9,108
"Cc1cc(Nc2cc(N3CCN(C)CC3)nc(Sc3ccc(NC(=O)C4CC4)cc3)n2)n[nH]1 [Tozasertib] + Cc1ccc(NC(=O)c2cccc(N(C)C)c2)cc1NC(=O)c1ccc(O)cc1 [ZM336372] (first compound 0.006 µM, partner dose 2 µM)",84.2,93.2,89.5,106,101,105,102,96.2,88.5,92.2
"Cc1cc(Nc2cc(N3CCN(C)CC3)nc(Sc3ccc(NC(=O)C4CC4)cc3)n2)n[nH]1 [Tozasertib] + CN(C)S(=O)(=O)c1ccc2c(c1)/C(=C/c1cc3c([nH]1)CCCC3)C(=O)N2 [SU6656] (first compound 0.006 µM, partner dose 0.4 µM)",99.9,93.4,100,101,88.7,97,91,79.4,77,71.9
"Cc1cc(Nc2cc(N3CCN(C)CC3)nc(Sc3ccc(NC(=O)C4CC4)cc3)n2)n[nH]1 [Tozasertib] + O=S(=O)(c1ccccc1)N(CC(F)(F)F)c1ccc(C(O)(C(F)(F)F)C(F)(F)F)cc1 [T0901317] (first compound 0.006 µM, partner dose 1.4 µM)",95.8,91.6,87.5,94,83.8,95.5,86.4,87,82,76.1
"CC[C@]1(O)C[C@H]2CN(CCc3c([nH]c4ccccc34)[C@@](C(=O)OC)(c3cc4c(cc3OC)N(C=O)[C@H]3[C@@](O)(C(=O)OC)[C@H](OC(C)=O)[C@]5(CC)C=CCN6CC[C@]43[C@@H]65)C2)C1 [vincristine] + NC(=O)Nc1cc(-c2cccc(F)c2)sc1C(=O)N[C@H]1CCCNC1 [AZD7762] (first compound 0.0001 µM, partner dose 0.02 µM)",106,99.2,63.2,98.8,69.5,103,56.2,113,52.6,58.5
"N#CC[C@H](C1CCCC1)n1cc(-c2ncnc3[nH]ccc23)cn1 [ruxolitinib] + COc1cc(N2CCC(N3CCN(C)CC3)CC2)ccc1Nc1ncc(Cl)c(Nc2ccccc2S(=O)(=O)C(C)C)n1 [NVP-TAE684] (first compound 1 µM, partner dose 0.08 µM)",94.5,87.3,77.5,84.5,105,106,79.8,87.7,93.3,119
"Cc1cc(Nc2cc(N3CCN(C)CC3)nc(Sc3ccc(NC(=O)C4CC4)cc3)n2)n[nH]1 [Tozasertib] + Oc1cc(-c2nc(-c3ccccc3)[nH]c2-c2ccncc2)ccc1Cl [L779450] (first compound 0.006 µM, partner dose 0.2 µM)",74.3,85.8,99.4,108,81.5,104,88.6,94.3,76.2,78
"CC[C@]1(O)C[C@H]2CN(CCc3c([nH]c4ccccc34)[C@@](C(=O)OC)(c3cc4c(cc3OC)N(C=O)[C@H]3[C@@](O)(C(=O)OC)[C@H](OC(C)=O)[C@]5(CC)C=CCN6CC[C@]43[C@@H]65)C2)C1 [vincristine] + O=C(Nc1cccc(Cl)c1)Nc1ncc(CCNc2ncnc3ccsc23)s1 [SNS314] (first compound 0.0001 µM, partner dose 0.0008 µM)",88.4,81.8,74,93,76.6,102,66.3,82.2,41.2,65.5
"Cc1cc(Nc2cc(N3CCN(C)CC3)nc(Sc3ccc(NC(=O)C4CC4)cc3)n2)n[nH]1 [Tozasertib] + Cn1cncc1[C@@](N)(c1ccc(Cl)cc1)c1ccc2c(c1)c(-c1cccc(Cl)c1)cc(=O)n2C [tipifarnib] (first compound 0.006 µM, partner dose 0.01 µM)",114,96.5,89.9,103,70.8,89.4,131,83,85.2,83.7
"Cc1cc(Nc2cc(N3CCN(C)CC3)nc(Sc3ccc(NC(=O)C4CC4)cc3)n2)n[nH]1 [Tozasertib] + Cn1cnc2c(F)c(Nc3ccc(Br)cc3Cl)c(C(=O)NOCCO)cc21 [selumetinib] (first compound 0.006 µM, partner dose 0.015 µM)",107,91.4,102,90.7,101,94,81,,,87.8
"CC[C@]1(O)C[C@H]2CN(CCc3c([nH]c4ccccc34)[C@@](C(=O)OC)(c3cc4c(cc3OC)N(C=O)[C@H]3[C@@](O)(C(=O)OC)[C@H](OC(C)=O)[C@]5(CC)C=CCN6CC[C@]43[C@@H]65)C2)C1 [vincristine] + CC(C)(C)c1cnc(CSc2cnc(NC(=O)C3CCNCC3)s2)o1 [SNS-032] (first compound 0.0001 µM, partner dose 0.01 µM)",106,96.3,58.8,94.6,69.9,95.8,57.1,98.8,58.5,62.7
"CC[C@]1(O)C[C@H]2CN(CCc3c([nH]c4ccccc34)[C@@](C(=O)OC)(c3cc4c(cc3OC)N(C=O)[C@H]3[C@@](O)(C(=O)OC)[C@H](OC(C)=O)[C@]5(CC)C=CCN6CC[C@]43[C@@H]65)C2)C1 [vincristine] + CCc1ccc(CCOc2ccc(CC3SC(=O)NC3=O)cc2)nc1 [pioglitazone] (first compound 0.0001 µM, partner dose 2 µM)",78.2,65.7,39.6,77,63.9,60.9,51.1,73.6,41.5,43.3
"CC[C@]1(O)C[C@H]2CN(CCc3c([nH]c4ccccc34)[C@@](C(=O)OC)(c3cc4c(cc3OC)N(C=O)[C@H]3[C@@](O)(C(=O)OC)[C@H](OC(C)=O)[C@]5(CC)C=CCN6CC[C@]43[C@@H]65)C2)C1 [vincristine] + O=C(O)C(=O)Nc1sc2c(c1C(=O)O)CCNC2 [TCS401] (first compound 0.0001 µM, partner dose 1.66667 µM)",78.7,88.8,55.5,137,74.4,88,53.5,94.4,65.3,57.7
"N#CC[C@H](C1CCCC1)n1cc(-c2ncnc3[nH]ccc23)cn1 [ruxolitinib] + CC(C)CCN1c2nc(Nc3cc(F)c(O)c(F)c3)ncc2N(C)C(=O)C1C [BID1870] (first compound 1 µM, partner dose 0.2 µM)",106,92.1,106,97.8,101,102,89.5,,99.5,
"CC[C@]1(O)C[C@H]2CN(CCc3c([nH]c4ccccc34)[C@@](C(=O)OC)(c3cc4c(cc3OC)N(C=O)[C@H]3[C@@](O)(C(=O)OC)[C@H](OC(C)=O)[C@]5(CC)C=CCN6CC[C@]43[C@@H]65)C2)C1 [vincristine] + CN(C)S(=O)(=O)c1ccc2c(c1)/C(=C/c1cc3c([nH]1)CCCC3)C(=O)N2 [SU6656] (first compound 0.0001 µM, partner dose 0.4 µM)",92.5,83.4,71.2,76.5,58.8,103,51.3,78.8,34,74.1
"Cc1cc(Nc2cc(N3CCN(C)CC3)nc(Sc3ccc(NC(=O)C4CC4)cc3)n2)n[nH]1 [Tozasertib] + c1cc(-c2cnn3cc(-c4ccc(OCCN5CCCCC5)cc4)cnc23)ccn1 [Dorsomorphin] (first compound 0.006 µM, partner dose 0.4 µM)",99.3,95.1,86.5,88.2,111,105,98.7,117,105,91.9
